# Measurements reported in PubChem BioAssay AID624417 (National Center for Advancing Translational Sciences (NCATS), 2012).
# The whole screen tested about 410,000 compounds, of which about 6,400 (1.6%) were called active. This list was built around the results that the source calls inconclusive (neither active nor inactive); the mix of calls is not that of the screen. The call rests on the fitted dose curve; in most records, active means well fitted inhibition curve with a large enough effect; inconclusive means small, poorly fitted or top-dose-only effect; inactive means no such curve, though single readings can be large or run the other way. Potencies of inconclusive entries are left out as doubtful fits.
# Target: Glucagon-like peptide 1 receptor (Homo sapiens) (UniProt P43220)
# UniProt P43220, sequence (P43220 whole entry, looked up): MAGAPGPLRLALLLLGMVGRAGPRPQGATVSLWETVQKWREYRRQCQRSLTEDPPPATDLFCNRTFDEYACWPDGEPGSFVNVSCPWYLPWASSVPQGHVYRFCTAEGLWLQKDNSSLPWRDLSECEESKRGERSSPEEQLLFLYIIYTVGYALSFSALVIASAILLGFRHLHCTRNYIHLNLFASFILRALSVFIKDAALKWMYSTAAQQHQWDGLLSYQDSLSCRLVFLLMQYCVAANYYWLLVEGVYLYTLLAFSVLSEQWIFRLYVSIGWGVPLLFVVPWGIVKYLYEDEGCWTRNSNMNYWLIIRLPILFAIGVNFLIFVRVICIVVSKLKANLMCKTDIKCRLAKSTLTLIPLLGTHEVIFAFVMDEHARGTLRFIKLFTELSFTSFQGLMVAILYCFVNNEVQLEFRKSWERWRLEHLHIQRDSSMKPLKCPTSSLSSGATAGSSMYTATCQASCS
# Assay: qHTS of GLP-1 Receptor Inverse Agonists (Inhibition Mode); further: nearly all actives have a fitted effect of over 55% in size
# Settings: HEK293 GLP-1R CRE-luciferase, luminescence, 24 h, GLP-1R form is constitutively active; series mostly up to 38.3 µM
# Outline: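 Constitutively active GLP-1R drives a cAMP-responsive luciferase in stably transfected HEK293 cells; test compounds are added after overnight (12 h) attachment and left 24 hr, and signal loss in luminescence marks inhibition.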
# Potency means the concentration at half of the fitted maximal effect; tags describe the fitted curve by direction and shape.
row,Structure (SMILES),Potency
1,CCc1c(C#N)c(SCCC(=O)Nc2ccc(OC)cc2)nc2c1C(=O)CC(C)(C)C2,"inconclusive [inhibitor, partial curve, poor fit]"
2,CC(=O)N1c2cc3ccccc3cc2N(C(C)=O)c2cc3ccccc3cc21,inactive
3,Cc1cc(C)c(C)c(S(=O)(=O)Nc2ccc(O)cc2)c1C,"inconclusive [inhibitor, partial curve]"
4,Cc1cccc(NC(=O)c2cc(S(=O)(=O)N(C)c3ccc(F)cc3)ccc2Cl)n1,"inconclusive [inhibitor, single point]"
5,COCCNc1nc(NCc2ccccc2OC)c2sccc2n1,"inconclusive [inhibitor, single point]"
6,Cc1cc2cc(CNC(=O)Cc3ccc([N+](=O)[O-])cc3)ccc2[nH]1,"inconclusive [inhibitor, single point]"
7,Cc1nc(N/N=C/c2ccc(Br)cc2)cc(N2CCOCC2)n1,"inconclusive [inhibitor, single point]"
8,COc1ccc2nc3c(cc2c1)c(NC(=O)c1cccs1)nn3CC(C)C,active: 8.91 µM
9,CCOc1cc(C(N)=O)cc(Br)c1OC,"inconclusive [inhibitor, single point]"
10,Cc1cc(C)nc(SCCCNCc2ccc(Br)cc2)n1,"inconclusive [inhibitor, partial curve, poor fit]"
11,CCC(C)(C)n1nnnc1C(c1cccnc1)N1CCC(Cc2ccccc2)CC1 (centres undefined),"inconclusive [inhibitor, single point]"
12,COC(=O)c1sc(S(=O)(=O)N2CCC(C)CC2)c(C(=O)OC)c1C,inactive
13,COCCNC(=S)NCCc1ccc(Cl)cc1Cl,"inconclusive [inhibitor, partial curve, poor fit]"
14,O=C(C1=C(O)C(=O)N(c2ncccn2)C1c1ccc(Cl)c(Cl)c1)c1ccco1 (centres undefined),inactive
15,O=C(O)CCN1C(=O)c2ccc(NC(=O)Cc3ccc(Cl)cc3)cc2C1=O,inactive
16,COc1ccc(-c2sc3cc4c(cc3c2C#CC2(N)CCCCC2)OCO4)cc1,"inconclusive [inhibitor, partial curve, poor fit]"
17,c1ccc(-c2ccc3ccccc3n2)cc1,inactive
18,O=C(/C=C/c1ccc(Br)cc1)c1ccc(NC(=O)c2ccco2)cc1,"inconclusive [inhibitor, partial curve, poor fit]"
19,COc1ccc(NC(=O)c2ccc(CN3CCc4ccccc4C3)cc2)c(OC)c1,"inconclusive [inhibitor, single point]"
